Reference: US7393640B2, “Terminal-phosphate-labeled nucleotides with new linkers” (GE Healthcare Bio-Sciences Corp., priority 2003, dated 2008)

Tests used:
[1] = test system: Phi29 DNA polymerase; conditions: same procedure as example 15
Description: The reaction mixture contained 10 nM Cy5-20mer primer (SEQ ID NO: 1) and 40mer oligonucleotide template (SEQ ID NO: 5, shown above), 20 mM Tris-HCl, 0.01% Tween 20, 5 mM MgCl2, 0.5 mM MnCl2,1 mM DTT, Bacterial alkaline phosphatase (BAP) and 100 mM terminal phosphate labeled nucleotide and DNA polymerase. • a. All components with the exception of DNA polymerase were combined and incubated in the presence of 0.0015 U/ul of BAP for 5 minutes at the 25° C. to hydrolyze any unlabeled nucleotides. • b. 1 ul of the reaction mix removed as a time=0 point and quenched in 4 ul of 95% formamide/25 mM EDTA • c. 1 ul of DNA polymerase was added to initiate the reaction. 2 ul aliquots at different time points were taken (for rapid time courses at 15, 30, and 60 sec) and were quenched in 8 ul 95% formamide/25 mM EDTA. • d. Samples were denatured in a boiling water bath for 4 min, quick chilled on ice and 2 ul was loaded on a 25% (19:1-Acrylamide: Bisacylamide), 8M Urea, 1×TBE PAGE. Gels were run for approximately 1 hr at 500V. • e. DNA products were visualized on Storm 860 and quantitated by calculating the fraction of the total 20mer primer converted to 21mer product.
The following primer/template were used, A (for deoxyguanosine analog, SEQ ID NO: 1 and SEQ ID NO: 2) and B (for Thymidine Analogs, SEQ ID NO: 1 and SEQ ID NO: 5)
Same procedure was used as reported above in example 15.

[2] = test system: Tne; assay: Rate of incorporation, primer extension 20mer to 21mer on gel; assay type: biochemical; conditions: 5 mM MgCl2, 0.5 mM MnCl2
[3] = test system: Tsp JS1 (WO 2003/004632); assay: as above; assay type: biochemical; conditions: 5 mM MgCl2, 0.5 mM MnCl2
[4] = test system: Ttm; assay: as above; assay type: biochemical; conditions: 5 mM MgCl2, 0.5 mM MnCl2
[5] = biological target: Human pol beta (Homo sapiens, UniProt P06746); assay: as above; assay type: biochemical; conditions: 5 mM MgCl2, 0.5 mM MnCl2
[6] = biological target: T1, Klenow exo- (Escherichia coli, UniProt P00582, D355A/E357A); assay: as above; assay type: biochemical; conditions: 5 mM MgCl2, 0.5 mM MnCl2
T1 construct: Klenow exo-
From the text: (§1) The rate of incorporation of the optimal linker attached dNTP (NH(CH2)7NH between the terminal phosphate and the dye moiety) was compared with the additional penta-lysine attached dNTP. A number of different DNA polymerases were used in the study to ascertain the effect of lysine moieties in the linker on the incorporation of nucleotides.

[7] = test system: AMV; assay: as above; assay type: biochemical; conditions: 5 mM MgCl2, 0.5 mM MnCl2
From the text: as §1

[8] = biological target: Phi-29 D12A (Bacillus phage phi29, UniProt P03680, D12A); assay: as above; assay type: biochemical; conditions: 5 mM MgCl2, 0.5 mM MnCl2
From the text: as §1

[9] = test system: Tsu; assay: as above; assay type: biochemical; conditions: 5 mM MgCl2, 0.5 mM MnCl2
[10] = test system: Sequenase; assay: as above; assay type: biochemical; conditions: 5 mM MgCl2, 0.5 mM MnCl2
[11] = biological target: T2, Pfu (Pyrococcus furiosus, UniProt P61875); assay: as above; assay type: biochemical; conditions: 5 mM MgCl2, 0.5 mM MnCl2
T2 sequence (P61875 1-775): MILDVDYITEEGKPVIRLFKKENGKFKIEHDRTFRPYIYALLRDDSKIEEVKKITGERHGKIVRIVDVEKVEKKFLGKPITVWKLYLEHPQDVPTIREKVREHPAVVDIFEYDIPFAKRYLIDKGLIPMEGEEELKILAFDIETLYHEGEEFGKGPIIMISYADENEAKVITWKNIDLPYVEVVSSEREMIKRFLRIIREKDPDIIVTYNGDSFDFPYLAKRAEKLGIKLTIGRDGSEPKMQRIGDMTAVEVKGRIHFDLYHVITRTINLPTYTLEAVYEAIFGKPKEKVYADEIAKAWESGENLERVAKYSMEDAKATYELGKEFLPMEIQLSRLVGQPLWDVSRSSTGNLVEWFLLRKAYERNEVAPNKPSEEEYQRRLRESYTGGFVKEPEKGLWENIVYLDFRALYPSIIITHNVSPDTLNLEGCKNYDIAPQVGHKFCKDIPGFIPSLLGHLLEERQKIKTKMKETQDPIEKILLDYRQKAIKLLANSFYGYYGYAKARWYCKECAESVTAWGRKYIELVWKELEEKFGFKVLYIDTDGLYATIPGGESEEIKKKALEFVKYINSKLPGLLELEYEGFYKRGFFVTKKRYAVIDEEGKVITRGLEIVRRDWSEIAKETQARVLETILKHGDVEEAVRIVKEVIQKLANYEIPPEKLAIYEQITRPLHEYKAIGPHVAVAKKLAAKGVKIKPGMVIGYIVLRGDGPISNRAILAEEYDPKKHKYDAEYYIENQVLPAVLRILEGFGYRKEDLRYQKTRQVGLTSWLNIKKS

[12] = test system: 9° N-exo- (NEN); assay: as above; assay type: biochemical; conditions: 5 mM MgCl2, 0.5 mM MnCl2
[13] = test system: ThermoSequenase I; assay: as above; assay type: biochemical; conditions: 5 mM MgCl2, 0.5 mM MnCl2
[14] = test system: Thy B; assay: as above; assay type: biochemical; conditions: 5 mM MgCl2, 0.5 mM MnCl2
[15] = test system: delta-T10; assay: as above; assay type: biochemical; conditions: 5 mM MgCl2, 0.5 mM MnCl2

Molecule	Rate [1] [nM/min]	rate of incorporation [2] [nM/min]	rate of incorporation [3] [nM/min]	rate of incorporation [4] [nM/min]	rate of incorporation [5] [nM/min]	rate of incorporation [6] [nM/min]	rate of incorporation [7] [nM/min]	rate of incorporation [8] [nM/min]	rate of incorporation [9] [nM/min]	rate of incorporation [10] [nM/min]	rate of incorporation [11] [nM/min]	rate of incorporation [12] [nM/min]	rate of incorporation [13] [nM/min]	rate of incorporation [14] [nM/min]	rate of incorporation [15] [nM/min]
CCOc1ccc2c(c1)Oc1cc(OP(=O)(O)OP(=O)(O)OP(=O)(O)OP(=O)(O)OC[C@H]3O[C@@H](n4cnc5c(=O)[nH]c(N)nc54)C[C@@H]3O)ccc1C21OC(=O)c2ccccc21 (some centres unmarked) [dG4P-Ethylfluorescein, 2′-Deoxyguanosine-5′-(δ-3′-(6′-ethylfluorescein))tetraphosphate]	9.1														
CCOc1ccc2c(c1)Oc1cc(OP(=O)(O)OP(=O)(O)OP(=O)(O)OP(=O)(O)OP(=O)(O)OC[C@H]3O[C@@H](n4cnc5c(=O)[nH]c(N)nc54)C[C@@H]3O)ccc1C21OC(=O)c2ccccc21 (some centres unmarked) [dG5P-Ethylfluorescein, 2′-Deoxyguanosine-5′-(ε-3′-(6′-ethylfluorescein))pentaphosphate]	17.6														
TAMRA-amidoheptyl-gamma-amido-thymidine-triphosphate [dTTP-C7-TAMRA]	1.96	2.3	0.2	1.2	5.6	0.2	0.2	2	1.00	0.2	4	6	0.2	1.29	6.2
